# Screen size: about 360,000 compounds; about 25,000 (6.9%) were called active. Inconclusive means that the source gave no clear call. Such entries were picked first, then a sample of the others. Calls follow the shape of the dose curve; as a rule, active = well fitted inhibition curve with a large enough effect; inconclusive = small, poorly fitted or top-dose-only effect; inactive = flat fitted curve, though single readings scatter. Potencies beside an inconclusive call are fits to weak or partial responses and may not hold up.
# Molecular target: Luciferin 4-monooxygenase (Photinus pyralis) (UniProt P08659)
# Test: qHTS profiling assay for firefly luciferase inhibitor/activator using purifed enzyme and Km concentrations of substrates (counterscreen for miR-21 project); also: nearly all actives have a fitted effect of over 55% in size;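 as to activity change, negative = inhibition: plate controls were vehicle for no effect and reference inhibitor for full effect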
# Conditions: purified FLuc, luminescence inhibition; series mostly up to 57.5 µM; activity change, negative = inhibition: at the top concentration
# Summary of the method: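 Purified P. pyralis luciferase, 10 nM final, with Km-level 10 uM D-luciferin and 10 uM ATP in 50 mM Tris acetate pH 7.5, 10 mM Mg acetate, 0.01% Tween-20, 0.05% BSA; 6-point qHTS titration about 60 µM downward; luminescence read.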
# Potency is read from the fitted curve at half-maximal effect; tags tell the direction and shape of the fitted curve.
# Sequence of UniProt P08659 (P08659 whole entry, looked up): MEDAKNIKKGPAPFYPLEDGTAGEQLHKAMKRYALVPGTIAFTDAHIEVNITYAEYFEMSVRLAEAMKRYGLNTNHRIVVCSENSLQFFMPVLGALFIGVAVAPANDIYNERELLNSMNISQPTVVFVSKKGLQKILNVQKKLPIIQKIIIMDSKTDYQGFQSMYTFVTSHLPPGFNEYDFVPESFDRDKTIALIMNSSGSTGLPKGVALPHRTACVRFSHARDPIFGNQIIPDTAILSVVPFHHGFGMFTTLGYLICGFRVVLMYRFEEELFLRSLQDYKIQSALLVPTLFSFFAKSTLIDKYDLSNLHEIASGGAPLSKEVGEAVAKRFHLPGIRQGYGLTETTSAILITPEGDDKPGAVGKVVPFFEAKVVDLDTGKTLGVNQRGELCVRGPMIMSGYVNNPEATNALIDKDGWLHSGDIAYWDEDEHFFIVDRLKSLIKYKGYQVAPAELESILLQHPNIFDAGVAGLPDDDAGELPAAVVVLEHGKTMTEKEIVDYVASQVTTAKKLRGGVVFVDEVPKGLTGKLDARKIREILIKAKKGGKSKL
Compound,"activity change, negative = inhibition",Potency
CCOC(=O)c1c(C)sc(-c2c(-c3cc(C)ccc3C)[nH]c3c2c(=O)[nH]c(=O)n3C)c1O,inactive: -18.5%,
COc1cc2ccccc2cc1C(=O)NNC(=O)c1ccccc1O,,"inconclusive: 21.3 µM [inhibitor, single point]"
CC(C)(C)OC(=O)N1CCC[C@H]1C(=O)O,inactive: 2.06%,
COc1ccccc1N=c1sc2ccccc2n1C,inactive: -7.1%,
COc1cccc(CNc2nc3nc(C)c(Cl)c(C)n3n2)c1,,"inconclusive: 30.1 µM [inhibitor, single point]"
CC(C)CCNC(=O)Cc1ccc(Nc2nc(=S)[nH]c3ccccc23)cc1,,"inconclusive: 37.9 µM [inhibitor, partial curve, poor fit]"
CC(C)(C)C(=O)COC(=O)CNC(=O)c1ccc(Oc2ccccc2)cc1,,"inconclusive: 16.9 µM [inhibitor, partial curve]"
COc1ccccc1CNc1nc(-c2ccco2)nn1S(=O)(=O)c1ccc(Cl)cc1,inactive: -1.44%,
COc1ccc(-c2ccc(CCC(=O)O)n2Cc2ccco2)cc1,,"inconclusive: 23.9 µM [inhibitor, partial curve, poor fit]"
COc1ccc(/C(O)=C2\C(=O)C(=O)N(Cc3ccco3)C2c2cc(OC)ccc2OC)cc1 (centres undefined),,"inconclusive: 30.1 µM [inhibitor, partial curve, poor fit]"
CCC(c1ccccc1)c1nnc(NC(=O)c2ccco2)s1 (centres undefined),,"inconclusive: 16.9 µM [inhibitor, partial curve]"
CCn1cnc2c1c(=O)n(Cc1csc(-c3ccccc3)n1)c(=O)n2Cc1ccccc1,inactive: -2.42%,
Cc1cccc(-c2nc(Nc3cccc(O)c3)c3ccccc3n2)c1,,"inconclusive: 26.9 µM [inhibitor, single point]"
COc1cccc(Nc2nc(N)nc(C(F)(F)F)n2)c1,,"inconclusive: 37.9 µM [inhibitor, partial curve, poor fit]"
Cc1ccc(-n2cc(CN(C)CCc3cn[nH]c3)c(-c3cccc(C)c3)n2)cc1,,"inconclusive: 37.9 µM [inhibitor, partial curve, poor fit]"
COc1cccc(NC(=O)CSc2nnc(CNC(=O)c3ccccc3)n2C)c1,,"inconclusive: 37.9 µM [inhibitor, partial curve, poor fit]"
Cc1cc(=O)[nH]c(N=N/C(=N/Nc2ccc(O)cc2)c2ccccc2)n1,,active: 10.7 µM
Cn1c(=O)c(=O)n(C)c2cc(S(=O)(=O)CCC(=O)Nc3c(F)c(F)c(F)c(F)c3F)ccc21,inactive: 2.91%,
COc1ccc2c(COC(=O)c3n[nH]c4ccccc34)cc(=O)oc2c1,,active: 3.01 µM
Cc1ncc([N+](=O)[O-])n1CC(=O)NC(C)(C)C,inactive: 0.0751%,
CCOC(=O)C1=C(N)OC2=C(C(=O)CC(C)C2)C1c1cccnc1 (centres undefined),,"inconclusive: 26.9 µM [inhibitor, partial curve, poor fit]"
CCc1ccn2cc(-c3ccc4c(c3)OCO4)nc2c1,,active: 0.0601 µM
CCOC(=O)CCn1nc(-c2ccc(Cl)cc2)cc1N,,"inconclusive: 8.49 µM [inhibitor, partial curve]"
COc1ccc(C(=O)Nc2nnc(SCC(=O)NCC3CCCO3)s2)cc1OC (centres undefined),,active: 12 µM
O=C(c1ccco1)N1CCN(c2ncnc3c(-c4ccc(Cl)cc4)nsc23)CC1,,active: 6.01 µM

Compound,"activity change, negative = inhibition",Potency
Cc1ccc(CCC(=O)Nc2ccccc2F)s1,,active: 7.57 µM
O=C(c1cc(-c2ccccc2)on1)N1CCCCCC1,,active: 9.53 µM
O=C(Nc1ccccc1)Nc1ccc(Cl)c([N+](=O)[O-])c1,,active: 19 µM
COc1ccc(Cc2nc3ccc(C(=O)N4CCCC4)cc3o2)cc1OC,inactive: -11%,
COc1cccc(CNC(=O)Cn2c(=O)oc3cc(S(=O)(=O)N4CCC(C)CC4)ccc32)c1,,"inconclusive: 12 µM [inhibitor, partial curve, poor fit]"
O=C(NNC(=O)c1csc(-c2cccnc2)n1)c1ccccc1,,"inconclusive: 26.9 µM [inhibitor, partial curve]"
COc1cccc(NC(=O)N2CCCc3ccccc32)c1,,"inconclusive: 23.9 µM [inhibitor, partial curve, poor fit]"
COc1cc(NC(=O)c2oc3ccccc3c2C)ccc1NC(=O)c1ccco1,,active: 5.36 µM
COc1ccc(CN2CCNC(=O)C2CC(=O)NCC2CCOCC2)c(F)c1 (centres undefined),inactive: 1.75%,
O=C(CSc1nccn1-c1ccccc1)N1CCc2ccccc21,,"inconclusive: 37.9 µM [inhibitor, partial curve, poor fit]"
Nc1nc2ccccc2n1C(=O)c1ccc(F)cc1,,active: 1.35 µM
CCOc1ccc(Nc2ccc([N+](=O)[O-])c3nonc23)cc1,,active: 12 µM
COc1cc(NC(=O)c2cnn3c(C)cc(C)nc23)c(OC)cc1Cl,inactive: 0.72%,
COc1ccccc1-c1nc2ccccc2c(=O)n1NC(=O)c1cccs1,inactive: 5.87%,
O=C(Nc1ccccc1C(F)(F)F)c1noc2c1CCCCC2,,active: 2.69 µM
COCCCNc1oc(/C=C/c2ccccc2)nc1C#N,,active: 3.38 µM
COc1cccc(C(=O)NCC(c2cccs2)N2CCOCC2)c1 (centres undefined),,"inconclusive: 23.9 µM [inhibitor, partial curve, poor fit]"
CCOC(=O)c1sc2nc3c(SCC(=O)O)cc(C(=O)c4cc(F)ccc4O)cn3c(=O)c2c1C,,active: 8.49 µM
CC(C)N(CCO)C(=O)CCc1nnc(CCCc2ccccc2)o1,,"inconclusive: 37.9 µM [inhibitor, single point]"
COc1ccc(/C=C2\N=C(SC)N(C)C2=O)cc1,,"inconclusive: 16.9 µM [inhibitor, partial curve]"
COc1cc(O)c(C(=O)/C=C/c2ccccc2)c(OC)c1,,active: 10.7 µM
Cc1csc(=NC(=O)c2ccccc2)n1C,,active: 13.5 µM
CCS(=O)(=O)c1ccc(O)c(NC(=O)/C=C/c2ccc(Cl)cc2)c1,,"inconclusive: 19 µM [inhibitor, partial curve, poor fit]"
CCC(=O)Nc1ccc(C(=O)OCc2ccccc2)cc1,,"inconclusive: 37.9 µM [inhibitor, single point]"

# Source: PubChem BioAssay AID588342 (National Center for Advancing Translational Sciences (NCATS), 2011)
